Measured values reported in PubChem BioAssay AID1347073 (National Center for Advancing Translational Sciences (NCATS), 2019).
In all, about 45,000 compounds went through this assay and about 200 (0.44%) were called active. Inconclusive results (about 7%) are left out. Calls come from the whole dose curve; as a rule, active = well fitted activation curve with a large enough effect; inconclusive = small, poorly fitted or top-dose-only effect; inactive = no such curve, though single readings can be large or run the other way. Some of the results follow.

assay: qHTS of TDP-43 Inhibitors: NCGC Sytravon Library Screen; conditions: yeast TDP-43 toxicity rescue, BacTiter-Glo growth, 24 h; series mostly up to 46.1 µM; growth rescue (activation): at the top concentration; note: 0% is about no effect; nearly all actives have a fitted effect of over 55% in size
Method in brief: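 TDP-43-expressing yeast, pregrown in raffinose, seeded at OD600 0.02 in galactose medium with compound for 24 hr at 30 deg C. Growth read by BacTiter-Glo luminescence, so rescue of toxicity appears as activation.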

Q: For `COc1ccc(N(CC(=O)N2CCN(c3ccc(F)cc3)CC2)S(=O)(=O)c2c(C)n[nH]c2C)cc1`, which “growth rescue (activation)” value is on record?
A: inactive: -0.768%

Q: Which “growth rescue (activation)” value does the source give for `OC(C#CCN1CCCC1)(c1ccccc1)c1ccccc1` here?
A: inactive: 15.6%

Q: For `O=C(O)c1ccc2c(c1)C(=O)N(c1cccc(-c3nc4ccccc4s3)c1)C2=O`, which “growth rescue (activation)” value is on record?
A: inactive: 4.55%

Q: Which “growth rescue (activation)” value does the source give for `O=C(Nc1ccccc1C(=O)N/N=C/c1ccncc1)c1ccccc1` here?
A: inactive: -76.8%

Q: For `C=CCNc1nc2cc(-c3ccccc3OC)sc2c(=O)n1C`, which “growth rescue (activation)” value is on record?
A: inactive: 28.4%

Q: With `COc1ccc(C(=O)COC(=O)CCN2C(=O)C3CC=CCC3C2=O)c(OC)c1` (stereo not drawn) as the molecule, how does the “growth rescue (activation)” value read?
A: inactive: 2.34%

Q: Which “growth rescue (activation)” value does the source give for `O=C(N/N=C/c1cccs1)c1n[nH]c2c1CCC2` here?
A: inactive: -5.59%

Q: For `CSc1ncccc1C(=O)OCCCC(=O)c1ccc(F)cc1`, which “growth rescue (activation)” value is on record?
A: inactive: 8.96%

Q: For `OC(c1ccc(Cl)cc1)C(CN1CCOCC1)c1ccccc1` (stereo not drawn), which “growth rescue (activation)” value is on record?
A: inactive: -3.53%

Q: With `COc1ccc(Cl)cc1NC(=S)Nc1ccc(Cl)cn1` as the molecule, how does the “growth rescue (activation)” value read?
A: inactive: 3.08%

Q: With `CSc1ncc(CN2CCN(CCC(C)C)C(CCO)C2)cn1` (stereo not drawn) as the molecule, how does the “growth rescue (activation)” value read?
A: inactive: -7.99%

Q: Which “growth rescue (activation)” value does the source give for `Cc1nonc1CN(C)C(=O)CC1C(=O)NCCN1Cc1ccc(F)c(F)c1` (stereo not drawn) here?
A: inactive: -3.01%

Q: For `Cc1nc([N+](=O)[O-])c(C(=O)O)n1C`, which “growth rescue (activation)” value is on record?
A: inactive: 4.86%

Q: With `CC(Oc1ccccc1)c1ccnc2nc(N3CCOCC3)nn12` (stereo not drawn) as the molecule, how does the “growth rescue (activation)” value read?
A: inactive: 6.34%

Q: For `Cc1ccc(C(=O)c2ccccc2C(=O)OCC(=O)N2CCCC2)cc1`, which “growth rescue (activation)” value is on record?
A: inactive: 1.92%

Q: For `COc1ccc(-n2nc(C(=O)NCC(=O)Nc3cc(OC)c(OC)c(OC)c3)c3ccccc3c2=O)cc1OC`, which “growth rescue (activation)” value is on record?
A: inactive: 18.8%

Q: With `CCCCC(=O)Nc1ccccc1C(=O)OCC(=O)c1ccc2c(c1)OCCO2` as the molecule, how does the “growth rescue (activation)” value read?
A: inactive: 10.9%

Q: Which “growth rescue (activation)” value does the source give for `COc1ccc(OC)c(-c2cc(C(=O)N3CCOCC3)no2)c1` here?
A: inactive: 17%

Q: With `CCN(CC)c1ccc(S(=O)(=O)Nc2cc(Cl)ccc2Cl)cc1NC(=S)NC(=O)C1CCCC1` as the molecule, how does the “growth rescue (activation)” value read?
A: inactive: 19.4%

Q: With `CCOc1ccc(Br)cc1C(=O)N/N=C/c1ccc([N+](=O)[O-])cc1` as the molecule, how does the “growth rescue (activation)” value read?
A: inactive: -2.5%

Q: With `Cc1ccc(NC(=O)Nc2ccc(F)cc2)cc1Cl` as the molecule, how does the “growth rescue (activation)” value read?
A: inactive: -5.35%

Q: For `CCOC(=O)N/N=C\C=C\c1ccco1`, which “growth rescue (activation)” value is on record?
A: inactive: 2.82%

Q: For `O=C(NCC1CCCCC1)c1cccc(Br)c1`, which “growth rescue (activation)” value is on record?
A: inactive: 14.8%

Q: For `O=C(Cc1ccc([N+](=O)[O-])cc1)OCc1ccc([N+](=O)[O-])cc1`, which “growth rescue (activation)” value is on record?
A: inactive: 11.6%

Q: With `CC(=O)Nc1cccc(Oc2nc(NCC3CC3)nc3ccsc23)c1` as the molecule, how does the “growth rescue (activation)” value read?
A: inactive: 9.57%

Q: With `OCc1cccc(-c2csc(C(O)c3ccco3)n2)c1` (stereo not drawn) as the molecule, how does the “growth rescue (activation)” value read?
A: inactive: 11.6%

Q: For `O=C(Cc1ccc(Br)cc1)NNC(=O)c1cccs1`, which “growth rescue (activation)” value is on record?
A: inactive: 4.35%

Q: With `Cc1cccnc1C(NC(=O)C1CCN(CCOc2ccc(F)cc2)CC1)c1ccc(Cl)cc1` (stereo not drawn) as the molecule, how does the “growth rescue (activation)” value read?
A: inactive: -1.15%

Q: For `CCN(c1ccccc1)S(=O)(=O)c1ccc(C(=O)N(C)CCc2ccc(OC)c(OC)c2)cc1`, which “growth rescue (activation)” value is on record?
A: inactive: 4.45%

Q: With `CCC(Sc1nc(N)cc(=O)[nH]1)C(=O)NC(C(=O)OC)c1ccccc1` (stereo not drawn) as the molecule, how does the “growth rescue (activation)” value read?
A: inactive: 10.8%

Q: With `Cc1sc2c(c1C)C(=O)NC(c1ccccc1F)N2` (stereo not drawn) as the molecule, how does the “growth rescue (activation)” value read?
A: inactive: -7.67%

Q: For `Cn1/c(=N/NC(=O)c2ccccc2F)sc2ccccc21`, which “growth rescue (activation)” value is on record?
A: inactive: -3.81%

Q: For `COc1ccc(N2C(=O)C(CC(=O)O)S/C2=N\N=C\c2cccs2)cc1` (stereo not drawn), which “growth rescue (activation)” value is on record?
A: inactive: -1.79%

Q: With `Cc1ccc(N(C(=O)Cn2nnc3ccccc32)C(C(=O)NCc2ccccc2)c2ccccn2)cc1` (stereo not drawn) as the molecule, how does the “growth rescue (activation)” value read?
A: inactive: 7.88%

Q: For `Cc1cccc(CSc2nc3c(c(-c4cccs4)c2C#N)CN(C)CC3)c1`, which “growth rescue (activation)” value is on record?
A: inactive: 4.14%

Q: Which “growth rescue (activation)” value does the source give for `COc1ccc(NC(=O)Cc2cccs2)cc1S(=O)(=O)N1CCCCC1` here?
A: inactive: 16.3%

Q: For `CN(C)c1ccc(/C=N/N=C/c2ccccc2O)cc1`, which “growth rescue (activation)” value is on record?
A: inactive: 0.0987%

Q: Which “growth rescue (activation)” value does the source give for `O=C(NCc1ccco1)c1c[nH]c2ccc(S(=O)(=O)N3CCOCC3)cc2c1=O` here?
A: inactive: -11.2%

Q: Which “growth rescue (activation)” value does the source give for `COc1ccc(NC(=O)C2(C)Cc3c(-c4ccc(C(N)=O)cc4)ccnc3O2)cn1` (stereo not drawn) here?
A: inactive: -6.18%

Q: For `CN(NS(=O)(=O)c1ccc(Cl)cc1)c1ncc(C(F)(F)F)cc1Cl`, which “growth rescue (activation)” value is on record?
A: inactive: 20.7%

Q: With `O=C(COC(=O)COc1ccccc1)Nc1ncc(Cl)cc1Cl` as the molecule, how does the “growth rescue (activation)” value read?
A: inactive: -10.6%

Q: Which “growth rescue (activation)” value does the source give for `CN(C)[C@@H]1CCC[C@H]1OC(=O)C(c1ccccc1)c1ccccc1` here?
A: inactive: -3.03%

Q: For `CC(C)c1ccc(N=C2N=C(N)c3ccccc32)cc1`, which “growth rescue (activation)” value is on record?
A: inactive: 27.9%

Q: With `CCOC(=O)CCCN1CC(O)=C(c2nc3ccccc3s2)C1=N` as the molecule, how does the “growth rescue (activation)” value read?
A: inactive: 8.58%

Q: With `CCCCn1c(=O)[nH]c(=O)c2c1nc(-c1ccc3ccccc3c1)n2CC` as the molecule, how does the “growth rescue (activation)” value read?
A: inactive: -8.39%

Q: With `COc1ccc(Cl)cc1S(=O)(=O)N1CCCC(C(=O)N2CCOCC2)C1` (stereo not drawn) as the molecule, how does the “growth rescue (activation)” value read?
A: inactive: 2.84%

Q: With `CCCCC(=O)N(C)c1c(C)nc2ccc(C(=O)N3CCCCC3)cn12` as the molecule, how does the “growth rescue (activation)” value read?
A: inactive: -9.12%

Q: Which “growth rescue (activation)” value does the source give for `C/C(=N\Nc1nc(-c2cc(C)ccc2C)cs1)c1cc2ccccc2oc1=O` here?
A: inactive: -11.3%

Q: For `CCN(CC)S(=O)(=O)c1cccc(C(=O)OCC(=O)NC(C)c2ccccc2)c1` (stereo not drawn), which “growth rescue (activation)” value is on record?
A: inactive: 13.8%

Q: For `COc1ccccc1CC(=O)Nc1ccc(S(=O)(=O)N2CCOCC2)cc1`, which “growth rescue (activation)” value is on record?
A: inactive: -11.9%

Q: Which “growth rescue (activation)” value does the source give for `Cc1ccc(Cc2c(C)nc3nc(SCC(=O)NCCCN4CCOCC4)nn3c2C)cc1` here?
A: inactive: 6.9%

Q: With `O=C(N/N=C/c1cccc(OC(=O)c2cccc(Br)c2)c1)c1cccnc1` as the molecule, how does the “growth rescue (activation)” value read?
A: inactive: 34.7%

Q: With `COc1ccc(Cl)cc1C(=O)NNC(=O)CNC(=O)c1ccc(C)s1` as the molecule, how does the “growth rescue (activation)” value read?
A: inactive: 6.76%
